Results reported in the supplement of paper PMC8728848.
Some of the results follow.

What was measured:
Experiment in all cases: glycan array binding signal (z-score within array); higher = stronger binding
Details in all cases: glycan notation: IUPAC condensed, linker removed
[1] = molecular target: Fuc(a1-2)Gal(b1-4)GlcNAc(b1-3)Gal(b1-4)GlcNAc(b1-3)Gal(b1-4)GlcNAc
Procedure, shortened: (§1)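 From the Consortium for Functional Glycomics database, 3228 arrays were curated, keeping only those whose protein sequence was available. Binding is given as a within-array Z-score averaged across arrays sharing a protein sequence and across linkers. Negative Z-scores can be read as non-binding.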

[2] = molecular target: Fuc(a1-2)Gal(b1-4)GlcNAc(b1-3)GalNAc
Procedure, shortened: as §1

[3] = molecular target: Fuc(a1-2)Gal(b1-4)GlcNAc(b1-3)[Fuc(a1-2)Gal(b1-4)GlcNAc(b1-6)]GalNAc
Procedure, shortened: as §1

[4] = molecular target: Fuc(a1-2)Gal(b1-4)GlcNAc(b1-3)[Fuc(a1-3)[Gal(b1-4)]GlcNAc(b1-6)]Gal(b1-4)Glc
Procedure, shortened: as §1

[5] = molecular target: Fuc(a1-2)Gal(b1-4)GlcNAc(b1-6)GalNAc
Procedure, shortened: as §1

[6] = molecular target: Fuc(a1-2)Gal(b1-4)GlcNAc6S
Procedure, shortened: as §1

[7] = molecular target: Fuc(a1-2)Gal(b1-4)[Fuc(a1-3)]GlcNAc
Procedure, shortened: as §1

[8] = molecular target: Fuc(a1-2)Gal(b1-4)[Fuc(a1-3)]GlcNAc(b1-2)Man(a1-3)[Fuc(a1-2)Gal(b1-4)[Fuc(a1-3)]GlcNAc(b1-2)Man(a1-6)]Man(b1-4)GlcNAc(b1-4)[Fuc(a1-6)]GlcNAc
Procedure, shortened: as §1

[9] = molecular target: Fuc(a1-2)Gal(b1-4)[Fuc(a1-3)]GlcNAc(b1-2)[Fuc(a1-2)Gal(b1-4)[Fuc(a1-3)]GlcNAc(b1-4)]Man(a1-3)[Fuc(a1-2)Gal(b1-4)[Fuc(a1-3)]GlcNAc(b1-2)Man(a1-6)]Man(b1-4)GlcNAc(b1-4)GlcNAc
Procedure, shortened: as §1

[10] = molecular target: Fuc(a1-2)Gal(b1-4)[Fuc(a1-3)]GlcNAc(b1-3)Gal(b1-4)[Fuc(a1-3)]GlcNAc
Procedure, shortened: as §1

[11] = molecular target: Fuc(a1-2)Gal(b1-4)[Fuc(a1-3)]GlcNAc(b1-3)Gal(b1-4)[Fuc(a1-3)]GlcNAc(b1-3)Gal(b1-4)[Fuc(a1-3)]GlcNAc
Procedure, shortened: as §1

[12] = molecular target: Fuc(a1-2)Gal(b1-4)[Fuc(a1-3)]GlcNAc(b1-3)GalNAc
Procedure, shortened: as §1

[13] = molecular target: Fuc(a1-2)Gal(b1-4)[Fuc(a1-3)]GlcNAc(b1-3)[Neu5Ac(a2-6)Gal(b1-4)GlcNAc(b1-6)]Gal(b1-4)Glc
Procedure, shortened: as §1

[14] = molecular target: Fuc(a1-2)Gal3S(b1-4)GlcNAc
Procedure, shortened: as §1

[15] = molecular target: Fuc(a1-2)Gal6S(b1-3)GlcNAc
Procedure, shortened: as §1

[16] = molecular target: Fuc(a1-2)Gal6S(b1-3)GlcNAc6S
Procedure, shortened: as §1

Fuc(a1-2)Gal6S(b1-4)Glc = molecular target: Fuc(a1-2)Gal6S(b1-4)Glc
Procedure, shortened: as §1

[17] = molecular target: Fuc(a1-2)Gal6S(b1-4)Glc6S
Procedure, shortened: as §1

Fuc(a1-2)[Gal(a1-3)]Gal = molecular target: Fuc(a1-2)[Gal(a1-3)]Gal
Procedure, shortened: as §1

[18] = molecular target: Fuc(a1-2)[Gal(a1-3)]Gal(b1-3)GalNAc
Procedure, shortened: as §1

[19] = molecular target: Fuc(a1-2)[Gal(a1-3)]Gal(b1-3)GalNAc(b1-3)Gal(a1-4)Gal(b1-4)Glc
Procedure, shortened: as §1

[20] = molecular target: Fuc(a1-2)[Gal(a1-3)]Gal(b1-3)GlcNAc
Procedure, shortened: as §1

[21] = molecular target: Fuc(a1-2)[Gal(a1-3)]Gal(b1-3)GlcNAc(b1-2)Man(a1-3)[Fuc(a1-2)[Gal(a1-3)]Gal(b1-3)GlcNAc(b1-2)Man(a1-6)]Man(b1-4)GlcNAc(b1-4)GlcNAc
Procedure, shortened: as §1

[22] = molecular target: Fuc(a1-2)[Gal(a1-3)]Gal(b1-3)GlcNAc(b1-2)Man(a1-3)[Fuc(a1-2)[Gal(a1-3)]Gal(b1-3)GlcNAc(b1-2)Man(a1-6)]Man(b1-4)GlcNAc(b1-4)[Fuc(a1-6)]GlcNAc
Procedure, shortened: as §1

[23] = molecular target: Fuc(a1-2)[Gal(a1-3)]Gal(b1-3)GlcNAc(b1-3)GalNAc
Procedure, shortened: as §1

[24] = molecular target: Fuc(a1-2)[Gal(a1-3)]Gal(b1-3)GlcNAc(b1-6)GalNAc
Procedure, shortened: as §1

[25] = molecular target: Fuc(a1-2)[Gal(a1-3)]Gal(b1-4)Glc
Procedure, shortened: as §1

[26] = molecular target: Fuc(a1-2)[Gal(a1-3)]Gal(b1-4)GlcNAc
Procedure, shortened: as §1

[27] = molecular target: Fuc(a1-2)[Gal(a1-3)]Gal(b1-4)GlcNAc(b1-2)Man
Procedure, shortened: as §1

[28] = molecular target: Fuc(a1-2)[Gal(a1-3)]Gal(b1-4)GlcNAc(b1-2)Man(a1-3)[Fuc(a1-2)[Gal(a1-3)]Gal(b1-4)GlcNAc(b1-2)Man(a1-6)]Man(b1-4)GlcNAc(b1-4)GlcNAc
Procedure, shortened: as §1

B1: PV12658A-bvu-496-32-496 (Bacteroides vulgatus) (protein)
chain: DLDGAITTPAAVELALNGIYYSLPGNGFNVIFPTVSGSFKAGTMWRQEIVSAGNAVYYSERMLPTLSFSDATEWDADYAVIKNANFLETACNRMSDGEFSGNRRAEVLGEIAYLRALAYFNILVRYCEFWDMNSEYGVVMRNEAPSVSNALKARSSVADSYQYILDQLEIAIEKAPDWKKLSQASKEAAKALKARVLLYAGKYTEAVAAVNDAIDTNSPLPEANYGDVFDKFSTTKEILFARVFDQKDATNTSTRQQCYGNSPTKKQGYWGPTNEYVELVGDDPRADAIFSKVDSLMDSRSSAVAYNLKSVKKLLNDANDMPVIFSRVSELYLIKAEALYRSGASISEAYAPIRKLRERAGAEIILPANNEELETAIFNEWMLELSFENWHEWFAMIRFAGYTEKPDFTRLLALNKTLREALEKEYEKSEAQGDNYYQRIIDRRIDAIPSSEISSNLECKQNPGY
[1]
  glycan array binding signal (z-score): -0.242
[2]
  glycan array binding signal (z-score): -0.552
[3]
  glycan array binding signal (z-score): -0.422
[4]
  glycan array binding signal (z-score): -0.343
[5]
  glycan array binding signal (z-score): -0.314
[6]
  glycan array binding signal (z-score): -0.209
[7]
  glycan array binding signal (z-score): -0.419
[8]
  glycan array binding signal (z-score): -0.36
[9]
  glycan array binding signal (z-score): -0.04
[10]
  glycan array binding signal (z-score): -0.318
[11]
  glycan array binding signal (z-score): -0.265
[12]
  glycan array binding signal (z-score): 0.224
[13]
  glycan array binding signal (z-score): -0.263
[14]
  glycan array binding signal (z-score): -0.303
[15]
  glycan array binding signal (z-score): -0.329
[16]
  glycan array binding signal (z-score): -0.43
Fuc(a1-2)Gal6S(b1-4)Glc
  glycan array binding signal (z-score): -0.511
[17]
  glycan array binding signal (z-score): -0.19
Fuc(a1-2)[Gal(a1-3)]Gal
  glycan array binding signal (z-score): -0.157
[18]
  glycan array binding signal (z-score): 0.035
[19]
  glycan array binding signal (z-score): -0.174
[20]
  glycan array binding signal (z-score): -0.399
[21]
  glycan array binding signal (z-score): 3.63
[22]
  glycan array binding signal (z-score): -0.045
[23]
  glycan array binding signal (z-score): -0.111
[24]
  glycan array binding signal (z-score): 0.31
[25]
  glycan array binding signal (z-score): -0.462
[26]
  glycan array binding signal (z-score): -0.33
[27]
  glycan array binding signal (z-score): 0.617
[28]
  glycan array binding signal (z-score): 0.026
